Measurements published in PubChem BioAssay AID1240 (Sanford-Burnham Center for Chemical Genomics, 2008).
The campaign covered roughly 50,000 compounds. About 800 (1.6%) showed an effect of 50% or more. This is one part of the list.

Target: Bcl-2-like protein 10 (Homo sapiens) (UniProt Q9HD36)
Assay: TR3 peptide-Bcl-B binding displacers, biochemical primary FP assay, phenotype converters (AID 1240);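 also: 0% = Bcl-B with tracer peptide and DMSO and 100% = tracer peptide lacking Bcl-B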
Details: GST-Bcl-B / FITC-TR3 peptide fluorescence polarization; stronger effect = higher value; compound at 3.75 mg/L

UniProt Q9HD36, sequence (Q9HD36 whole entry, looked up): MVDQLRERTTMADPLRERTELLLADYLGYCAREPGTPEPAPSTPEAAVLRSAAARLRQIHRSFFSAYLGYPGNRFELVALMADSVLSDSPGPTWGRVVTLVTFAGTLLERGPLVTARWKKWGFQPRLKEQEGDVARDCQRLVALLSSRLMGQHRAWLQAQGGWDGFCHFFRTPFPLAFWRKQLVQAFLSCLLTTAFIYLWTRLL

Q: How did the displacement turn out when `Cc1ccccc1-n1c(C)cc(/C=N/NC(=O)c2cccnc2)c1C` was run?
A: -30.1%

Q: Which displacement does the source give for `CC(C)(C)C(C)(O)C#CCN1CCOCC1` (stereo not given) here?
A: 3.9%

Q: Which displacement does the source give for `CCOc1cccc(C(=O)Nc2nnc(-c3ccco3)s2)c1` here?
A: 6.1%

Q: Which displacement does the source give for `CCN(CC)c1ccc(/C=C2\SC(N3CCCC3)=NC2=O)cc1` here?
A: -76.5%

Q: With `COc1ccc(N(CC(=O)NC(C)(C)C)S(=O)(=O)c2ccccc2[N+](=O)[O-])c(OC)c1` as the molecule, how does the displacement read?
A: -1.3%

Q: With `Cc1ccc(S(=O)(=O)NCc2ccc3c(c2)OCO3)cc1` as the molecule, how does the displacement read?
A: -7.8%

Q: Which displacement does the source give for `O=C(Nc1ccc(F)cc1)c1ccc(-c2ccccc2)cc1` here?
A: 13.9%

Q: For `NS(=O)(=O)c1ccc(NC(=O)COc2ccc3ccccc3c2)cc1`, which displacement is on record?
A: 3%

Q: Which displacement does the source give for `COc1ccc(/C=N/NC(=O)C(=O)NCc2ccc(Cl)cc2)cc1` here?
A: 12.4%

Q: Which displacement does the source give for `Cc1ccc(C(=O)NCc2ccncc2)cc1[N+](=O)[O-]` here?
A: -2.5%

Q: Which displacement does the source give for `O=C(Nc1cccc(Cl)c1)C1CC(=O)N(c2ccc(Br)cc2)C1` (stereo not given) here?
A: -1.1%

Q: Which displacement does the source give for `CCOc1ccc(C2=C/C(=C/c3ccc(OC)cc3)C(=O)O2)cc1` here?
A: -0.6%

Q: Which displacement does the source give for `CCOC(=O)C(C)Oc1cccc2c1ccc1c(-c3ccccc3)cc(=O)oc12` (stereo not given) here?
A: 11.4%

Q: Which displacement does the source give for `Cc1cccc(CN2CCN(C(=O)c3cccs3)CC2)c1` here?
A: 12.7%

Q: How did the displacement turn out when `O=C1c2ccccc2C(=O)N1CCc1nc2ccccc2c(=O)n1-c1cccnc1` was run?
A: -6.2%

Q: `NNC(=O)CNC(c1ccccc1)c1cc(Br)ccc1NC(=O)c1ccccc1Cl` (stereo not given) was tested. Which displacement did it give?
A: -16.1%

Q: Which displacement does the source give for `O=C1NC(=Nc2ccc(O)cc2)CS1` here?
A: 2.6%

Q: For `Cc1cccc(C)c1NC(=O)COc1ccc(Cl)cc1Cl`, which displacement is on record?
A: 11.4%

Q: With `COc1ccc(NC(=O)CCCOc2ccccc2)c(OC)c1` as the molecule, how does the displacement read?
A: -3.2%

Q: `Fc1ccccc1C=NN1CCN(Cc2ccccc2)CC1` was tested. Which displacement did it give?
A: -0.6%

Q: For `CCOc1ccc2nc(Nc3nc(O)c(C)c(=O)[nH]3)nc(C)c2c1`, which displacement is on record?
A: -1.1%

Q: How did the displacement turn out when `Oc1ccc2ccccc2c1/C=N/Nc1nnc(-c2ccccc2)c(-c2ccccc2)n1` was run?
A: 1.7%

Q: How did the displacement turn out when `Cc1c(C(=O)Nc2ccc([N+](=O)[O-])cc2)cnn1-c1ccccc1` was run?
A: 6.5%

Q: `COc1ccc(N2C(=O)NC(=O)/C(=C\c3ccccc3Cl)C2=O)cc1` was tested. Which displacement did it give?
A: -6.1%

Q: `CC1=C(C(=O)OC(C)C)C(c2ccc(F)cc2)NC(=S)N1` (stereo not given) was tested. Which displacement did it give?
A: 4.7%

Q: With `CCN1C(=O)/C(=C\c2ccc(OC(=O)c3cccs3)c(OC)c2)SC1=S` as the molecule, how does the displacement read?
A: 12.9%

Q: For `CCOC(=O)COc1ccccc1/C=C1\C(=O)NC(=O)N(c2ccc(C)cc2)C1=O`, which displacement is on record?
A: -22.2%

Q: How did the displacement turn out when `CCOC(=O)CSCCOc1ccc(/C=C2/C(=O)NC(=O)N(c3ccc(C)cc3)C2=O)cc1OC` was run?
A: 8.7%

Q: For `CC(=O)c1cc(C(=O)CC(=O)Nc2cccc([N+](=O)[O-])c2)sc1Nc1ccccc1`, which displacement is on record?
A: 47.9%

Q: How did the displacement turn out when `CCOC(=O)c1[nH]c(C)c(C(C)=O)c1C` was run?
A: 0.5%
